Data from the BET-seq Pho4 binding data (Le et al. 2018).
Some of the results follow. Values were computed here from the reads of four pooled replicates and scatter widely.

biological target: T1, Pho4 (S. cerevisiae) (UniProt P07270); test: relative binding free energy (BET-seq); higher = weaker binding; details: reference: library average
T1 sequence: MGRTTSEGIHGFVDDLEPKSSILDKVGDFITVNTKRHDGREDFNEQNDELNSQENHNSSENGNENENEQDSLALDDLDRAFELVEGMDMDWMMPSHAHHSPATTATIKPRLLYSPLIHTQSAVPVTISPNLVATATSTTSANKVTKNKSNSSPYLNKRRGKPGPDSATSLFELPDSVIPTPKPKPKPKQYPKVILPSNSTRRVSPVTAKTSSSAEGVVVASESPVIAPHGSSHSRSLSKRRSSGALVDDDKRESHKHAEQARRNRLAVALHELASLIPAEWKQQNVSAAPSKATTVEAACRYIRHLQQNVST

| Sequence | relative binding free energy [kcal/mol] |
| --- | --- |
| GGCATCACGTGGAGAG | 0.25 |
| TGCGTCACGTGTTGAG | 0.15 |
| AGGTTCACGTGAGCGG | 0.45 |
| TGCCACACGTGGGGTT | -0.09 |
| GGTAACACGTGCGGTA | 0.07 |
| TAGGTCACGTGGTAAC | 0.19 |
| TTTACCACGTGTGTGT | -0.15 |
| TGTCTCACGTGTTGAG | 0.16 |
| GTTAACACGTGGGGAA | -0.07 |
| AGATGCACGTGGTTGA | -0.14 |
| GCTTACACGTGGTGGG | 0.12 |
| AAGTCCACGTGGGAGT | -0.06 |
| AGTTTCACGTGTAATG | 0.27 |
| GAGGTCACGTGTGGCG | 0.09 |
| GTGTTCACGTGATGAC | 0.6 |
| TGGATCACGTGTCAGA | 0.39 |
| GGTTGCACGTGGCAGA | 0.05 |
| TGAGACACGTGCGGAT | 0.09 |
| AGCGTCACGTGTATGA | 0.03 |
| AGGCCCACGTGTGTGG | -0.1 |
| GGTAACACGTGCTGGA | 0.12 |
| TATGACACGTGGGACG | -0.04 |
| AGGTGCACGTGCTGAT | -0.05 |

| Sequence | relative binding free energy [kcal/mol] |
| --- | --- |
| TCTAGCACGTGTGGTT | 0.03 |
| ATAATCACGTGGAATA | 0.27 |
| ATAATCACGTGGTGCT | -0.03 |
| TTTAGCACGTGGTCAG | -0.32 |
| TATTTCACGTGCTGAT | 0.15 |
| TAATACACGTGTATGG | 0.16 |
| AGGTCCACGTGGGGCA | -0.17 |
| GGAAGCACGTGAAGCG | 0.3 |
| GATAACACGTGGTCGG | -0.03 |
| TTAGGCACGTGGCGTA | -0.29 |
| TGAAGCACGTGGGCTT | -0.11 |
| AATATCACGTGTGTTA | -0.07 |
| TTCGACACGTGGTCTG | -0.02 |
| AGCGGCACGTGTGTAA | -0.05 |
| GTTTTCACGTGGTTTT | 0.45 |
| TATGGCACGTGTACTG | -0.04 |
| TTGTGCACGTGATTGT | 0.16 |
| GGCGACACGTGAGTGT | 0.18 |
| GTGGTCACGTGGTAAC | 0.15 |
| TGGGCCACGTGTGGTC | -0.08 |
| GGAGGCACGTGGTGAT | -0.1 |
| GTGCTCACGTGCGGTT | 0.14 |
| TTGGTCACGTGTATCA | 0.15 |

| Sequence | relative binding free energy [kcal/mol] |
| --- | --- |
| ATCGGCACGTGTGGTC | -0.07 |
| GTGGTCACGTGTCAGT | 0.14 |
| CAATTCACGTGAAGGT | 0.4 |
| GGGGCCACGTGATGGT | 0.16 |
| CGGGGCACGTGATGTT | 0.07 |
| AGTAGCACGTGAACGG | 0.2 |
| TATTGCACGTGTGTTG | -0.06 |
| TTTGGCACGTGAGCAG | 0.01 |
| TGGATCACGTGCATGT | 0.25 |
| ATGTTCACGTGCGTGC | 0.12 |
| GATTGCACGTGTAGTG | 0.05 |
| TTTATCACGTGCTAGG | 0.07 |
| AGCTACACGTGTTTTG | 0.07 |
| AGGGGCACGTGTGATT | 0.06 |
| TTGAACACGTGGGAGA | -0.16 |
| TATGTCACGTGTCGTT | 0.19 |
| TATGGCACGTGGCCTT | -0.14 |
| TCGTACACGTGTGGGG | -0.08 |
| GGGATCACGTGGAGAG | 0.28 |
| TGTCACACGTGTATGA | 0.17 |
| TATTACACGTGTTGGG | 0.19 |
| CGTACCACGTGGTTGG | -0.14 |
| GTGGGCACGTGAACGT | 0.17 |

| Sequence | relative binding free energy [kcal/mol] |
| --- | --- |
| CTTGGCACGTGCTGGA | -0.21 |
| ATATGCACGTGTAGGC | -0.11 |
| CAGGACACGTGGTGTT | -0.11 |
| TTAAGCACGTGTTTTT | 0.02 |
| GATTTCACGTGAGGAG | 0.47 |
| GGATTCACGTGCGGGC | 0.29 |
| TGGGACACGTGAATAG | 0.3 |
| AGGGCCACGTGAGGCG | -0.02 |
| TGAGTCACGTGTTAAC | 0.15 |
| TGTGACACGTGCAAGG | -0.14 |
| ATCGGCACGTGTTGTG | -0.06 |
| TTGTACACGTGGGCAT | -0.07 |
| TCCGGCACGTGGGGAG | -0.29 |
| ATAGGCACGTGGTGGC | -0.22 |
| TGAGTCACGTGTACGT | 0.08 |
| TGTTACACGTGCTTCG | 0.04 |
| AGACTCACGTGGTGTT | 0.03 |
| GTTGTCACGTGGAAGC | 0.17 |
| TGGGGCACGTGGGATA | -0.13 |
| AGTTGCACGTGAAGGC | 0.24 |
| GTACTCACGTGTGGTC | 0.27 |
| ATTTGCACGTGCATGG | 0.03 |
| GTGTTCACGTGTAGAG | 0.27 |

| Sequence | relative binding free energy [kcal/mol] |
| --- | --- |
| GGTTCCACGTGTAGAG | 0.12 |
| TACTTCACGTGATGGG | 0.29 |
| CTTTGCACGTGAGTAT | 0.12 |
| ATAAACACGTGTTGTG | -0.16 |
| TGTGGCACGTGGTCCG | -0.28 |
| GCGGGCACGTGGATGT | -0.03 |
| GGGAACACGTGAGTTA | 0.35 |
| GGAGGCACGTGCGGTA | -0.2 |
| GTGTGCACGTGCTTTG | -0.09 |
| GAGGGCACGTGCGGAT | -0.08 |
| GCATGCACGTGTGTAA | 0.12 |
| TGGGGCACGTGGATTA | -0.16 |
| ATAGGCACGTGGTTTA | -0.16 |
| ATTCGCACGTGAGGGA | 0.23 |
| TAGTGCACGTGAGTGC | 0.12 |
| CTGAGCACGTGTGGCG | -0.13 |
| TGATACACGTGTCGGG | 0.05 |
| GTGATCACGTGTCGGA | 0.16 |
| TAGGCCACGTGGTTAG | -0.13 |
| TTCTGCACGTGCGTTG | 0.05 |
| CTGATCACGTGGGAGG | 0.07 |
| GCGTGCACGTGGACGG | 0.06 |
| CTTATCACGTGAATTT | 0.47 |
